Reference: PMC4336329 (PLoS ONE, 2015)
Among all 310,000 compounds or so, about 14,000 (4.5%) showed an effect of 50% or more. Effects have a minus sign here. The list shows a part of the results.

biological target: human ether-à-go-go-related gene (hERG) potassium channel (human, UniProt Q12809); assay: primary screen, population patch clamp on CHO cells stably expressing hERG
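Further: peak tail current of the secondary pulse compared with the same well before compound.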

human ether-à-go-go-related gene (hERG) potassium channel, sequence (Q12809 whole entry, looked up): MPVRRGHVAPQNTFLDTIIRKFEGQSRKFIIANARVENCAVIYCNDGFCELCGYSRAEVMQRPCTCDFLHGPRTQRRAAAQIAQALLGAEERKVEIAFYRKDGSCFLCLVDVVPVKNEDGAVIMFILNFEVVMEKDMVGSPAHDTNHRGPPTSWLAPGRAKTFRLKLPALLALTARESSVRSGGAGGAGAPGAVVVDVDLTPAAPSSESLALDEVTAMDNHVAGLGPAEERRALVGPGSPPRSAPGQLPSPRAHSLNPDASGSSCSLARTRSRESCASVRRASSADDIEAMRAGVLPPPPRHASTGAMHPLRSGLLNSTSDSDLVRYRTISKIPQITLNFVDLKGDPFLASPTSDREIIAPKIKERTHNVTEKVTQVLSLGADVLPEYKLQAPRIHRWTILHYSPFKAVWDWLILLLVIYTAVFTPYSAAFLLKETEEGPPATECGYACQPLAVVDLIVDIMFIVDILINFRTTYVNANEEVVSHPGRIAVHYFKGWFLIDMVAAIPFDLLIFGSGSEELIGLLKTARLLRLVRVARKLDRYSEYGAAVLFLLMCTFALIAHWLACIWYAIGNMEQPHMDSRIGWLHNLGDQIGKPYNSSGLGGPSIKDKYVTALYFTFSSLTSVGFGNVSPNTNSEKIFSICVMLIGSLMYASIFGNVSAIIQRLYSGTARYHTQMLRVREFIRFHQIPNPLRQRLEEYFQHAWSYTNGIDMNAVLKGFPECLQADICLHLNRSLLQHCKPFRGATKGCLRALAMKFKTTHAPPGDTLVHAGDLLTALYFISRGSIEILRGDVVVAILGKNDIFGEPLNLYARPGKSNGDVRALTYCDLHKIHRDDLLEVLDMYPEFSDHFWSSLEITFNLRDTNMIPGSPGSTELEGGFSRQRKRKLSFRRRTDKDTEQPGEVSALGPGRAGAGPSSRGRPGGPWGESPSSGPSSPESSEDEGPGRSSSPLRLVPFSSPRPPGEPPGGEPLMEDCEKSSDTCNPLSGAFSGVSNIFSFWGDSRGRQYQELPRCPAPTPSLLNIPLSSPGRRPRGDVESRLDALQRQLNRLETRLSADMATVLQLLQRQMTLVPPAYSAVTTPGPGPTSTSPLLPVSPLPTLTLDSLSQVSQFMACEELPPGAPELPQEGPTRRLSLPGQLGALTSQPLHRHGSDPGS

| SMILES | hERG current change (%, negative = inhibition) at 10uM |
| --- | --- |
| Cc1ccc(OC(C)C(=O)Nc2ccc(C)c(S(=O)(=O)Nc3ccc(C)cc3C)c2)cc1 (stereo not drawn) | 11.8% |
| Cc1ccc(C(=O)OCN2C(=O)c3ccccc3C2=O)o1 | 11.6% |
| CC(C)C(=O)Nc1ccc2c(c1)nc(CCN1CCN(c3ccccn3)CC1)n2C | -18.2% |
| Cl.c1ccc(CCn2nnnc2CN2CCN(C3CCCC3)CC2)cc1 | -3.4% |
| COc1ccc(CCNCc2ccncc2)cc1OC | -6.17% |
| COC(=O)c1ccc(OCC(O)CN2CCC(C)CC2)cc1 (stereo not drawn) | -15.3% |
| Cc1ccccc1CC(=O)N1CCCC(CNC(=O)c2ccc(F)cc2)C1 (stereo not drawn) | -2% |
| Cc1cc(Br)cc2c(C(=O)NCC3CCCO3)cc(-c3ccccc3)nc12 (stereo not drawn) | 6.39% |
| Cn1nccc1C(=O)N1CCCC(Nc2ccc(F)cc2)C1 (stereo not drawn) | 18.4% |
| OCCC1CN(Cc2nc3c(s2)CCCC3)CCN1Cc1ccccc1 (stereo not drawn) | -22.5% |
| COc1ccc(-c2nc(CS(=O)CC(=O)NCCCN3CC(C)CC(C)C3)c(C)o2)cc1OC (stereo not drawn) | 27.6% |
| O=S(=O)(c1ccc(F)cc1)N1CCCC(c2nc(-c3ccc(F)cc3)no2)C1 (stereo not drawn) | -13.9% |
| CSc1nc2ccccc2c(=O)n1-c1cccnc1 | 4.84% |
| CC(C)(C)OC(=O)N[C@@H](Cc1ccccc1)C(=O)N[C@@H](CO)[C@H](O)[C@@H]1C[C@@H]1C(=O)NC1CC1 | 7.28% |
| CCOC(=O)c1sc(NC(=O)Cc2ccc(F)cc2)nc1C | -9.81% |
| Cl.c1ccc(CN2CCN(CCN3CCn4c3nc3ccccc34)CC2)cc1 | -75.8% |
| CCCc1ccc(Oc2c(-c3ccc(O)c(C)c3O)n[nH]c2C)cc1 | -13.2% |
| CC(=O)c1cccc(NC(=O)Cn2nc(-c3ccc(Cl)cc3)ccc2=O)c1 | -17.8% |
| COc1cccc(-c2cc(C(=O)Nc3cnn(Cc4ccc(F)cc4)c3)no2)c1 | 21.4% |
| COCc1nnc(NC(=O)c2ccccc2Oc2ccccc2)s1 | 9.02% |
| Cc1ccc(C(=O)N2CCC(C(=O)c3c(C)cc(C)cc3C)CC2)cc1 | -38.5% |
| O=C(NCc1ccccc1)NC1(C(=O)N2CCN(c3ncccn3)CC2)CCCCC1 | 1.22% |

| SMILES | hERG current change (%, negative = inhibition) at 10uM |
| --- | --- |
| O=C(NCCCCNC(=O)c1cccs1)c1cccs1 | 10.2% |
| CN(C)S(=O)(=O)N1CCN(c2ccccc2Cl)CC1 | -7.02% |
| O=c1c(-c2ccco2)[n+]([O-])c2ccccc2n1OCc1ccccc1[N+](=O)[O-] | -16.2% |
| Cc1nc2c(=O)[nH]c3ccccc3c2o1 | 5.79% |
| Cc1ccc(N2CC(NC(=O)C(=O)c3c[nH]c4ccccc34)CC2=O)cc1C (stereo not drawn) | 1.89% |
| Cc1cc(F)ccc1S(=O)(=O)N1CCCOC1CNC(=O)C(=O)NCCN1CCOCC1 (stereo not drawn) | 7.34% |
| CC(=O)Oc1ccc(C(=O)[C@H]2[C@H]3C(=O)N(c4ccc5ccccc5c4)C(=O)[C@H]3[C@@H]3C=CC=NN32)cc1 | -12.7% |
| Cc1ccc(CN2CC(C(=O)Nc3ccc(F)c([N+](=O)[O-])c3)CC2=O)cc1 (stereo not drawn) | -16% |
| CCOC(=O)C1=C(C)OC(N)=C(C#N)C1c1cc2c(cc1[N+](=O)[O-])OCO2 (stereo not drawn) | -0.846% |
| COc1cccc(C2=NOC(C(=O)N3CCN(c4ccccc4)CC3)C2)c1OC (stereo not drawn) | -0.252% |
| Cc1ccc(/C=N/Nc2cc(C)nc(N3CCOCC3)n2)cc1 | 17.5% |
| c1ccc(CSc2ccc(-c3ccco3)nn2)cc1 | 5.6% |
| COc1cc(NC(=O)CCn2c(=O)oc3ccccc32)cc(OC)c1OC | 24% |
| Cc1ccc(C2CC(=O)C(C=NCCN3CCN(C(=S)Nc4ccccc4)CC3)=C(O)C2)cc1 (stereo not drawn) | -26.4% |
| CCn1c(=O)cc(OCC(=O)N2CCN(C(=O)c3ccco3)CC2)c2ccccc21 | -29.7% |
| Cc1ccc(CSc2nnc(CCCCCNC(=O)OC(C)(C)C)o2)cc1 | -18.1% |
| O=C(CCc1c[nH]c2ccccc12)NCCc1ccc(Cl)cc1 | -9.21% |
| C/C(=N\NC(=O)NC1CCCCC1)c1ccco1 | -17% |
| Cc1ccc(NC(=O)Cc2nc(-c3c[nH]c(C(=O)N4CCCC4)c3)cs2)c(C)c1 | -26.7% |
| C=CCn1c(C)csc1=Nc1ccc(C(C)=O)cc1 | -18.4% |
| CC(C)OC(=O)CN1CCN(c2ccc(Cl)cc2)CC1 | 1.73% |
| C=CCNc1nc(N)c([N+](=O)[O-])c(NCc2ccccc2)n1 | 9.95% |

| SMILES | hERG current change (%, negative = inhibition) at 10uM |
| --- | --- |
| Cc1cc(C(=O)NNC(=O)c2ccccc2[N+](=O)[O-])c(C)o1 | 11.2% |
| CCOc1cc(C)c(Cl)cc1S(=O)(=O)NCCOC | 2.03% |
| COC(=O)C1=C(c2cc3ccccc3o2)C[C@@H]2CC[C@H]1N2C(=O)N1CCCC1 | -6.09% |
| O=C(Cc1ccc([N+](=O)[O-])cc1)Nc1ccc(Cl)cc1 | -0.617% |
| COc1ccc(-c2coc3cc(O)ccc3c2=O)cc1 | -5.05% |
| Cc1cccc(C(=O)N/N=C2\CS(=O)(=O)N(C)c3ccsc32)c1 | -6.06% |
| CC(NC(=O)CCN1C(=O)c2ccccc2C1=O)c1ccccc1 (stereo not drawn) | 12.7% |
| O=C(Nc1ccc(Sc2ccc(Br)cc2)cc1)c1ccco1 | 10.4% |
| COC(=O)c1ccc(OC)c(Cn2c(=O)n(C)c(=O)c3sccc32)c1 | 6.47% |
| C=C(C)c1cccc(C(C)(C)NC(=O)Nc2ccc(OC)nc2)c1 | -23.3% |
| COc1ccc(OCC(O)CNC2CCCC2)cc1.Cl (stereo not drawn) | 12.8% |
| Cc1cccc(N(CC(=O)NC2CCCCC2)C(=O)CCC(=O)Nc2nccs2)c1 | 21.3% |
| COc1ccc(CN2CCN(CCCc3ccccc3)CC2)c(OC)c1 | -76.6% |
| CCN(C1CCCCC1)S(=O)(=O)c1c(C)n(C)c(=O)n(C)c1=O | -1.47% |
| COc1ccc(-c2cc3c(=O)n(CC(=O)NCCCc4ccccc4)ncn3n2)cc1 | 7.35% |
| COc1ccc(N(CC(=O)Nc2ccc(C(C)C)cc2)S(=O)(=O)c2c(C)noc2C)cc1 | 1.83% |
| CCc1ccccc1NC(=O)c1cc(=O)c2ccccc2o1 | -1.16% |
| O=C(CN1CCC(O)(c2ccc3c(c2)OCO3)CC1)OC1CCCCC1 | -5.98% |
| O=C1NC(=O)c2cc(Br)cc3cccc1c23 | 13.6% |
| CC1CCN(c2cc(N3CCN(C(=O)c4ccc(F)c(F)c4)CC3)c([N+](=O)[O-])cc2F)CC1 | -5.86% |
| O=C(Nc1ccccc1)Nc1nnc(-c2ccccc2)o1 | 5.53% |
| Cl.c1ccc(CCn2nnnc2CN2CCCc3ccccc32)cc1 | -14.7% |

| SMILES | hERG current change (%, negative = inhibition) at 10uM |
| --- | --- |
| Cc1cc(N/N=C/c2cccc(F)c2)nc(NCc2ccccc2)n1 | -21.9% |
| CC1(C)C2CC=C(/C=N/NC(=O)c3ccc(Cl)cc3)C1C2 (stereo not drawn) | 1.61% |
| Cc1ccc(S(=O)(=O)Oc2ccc(C3C4=C(CCCC4=O)N(CCC(=O)O)C4=C3C(=O)CCC4)cc2Cl)cc1 | 0.796% |
| CC1=CC(C)(C)NC(=S)N1c1ccc(C)c(C)c1 | 13.3% |
| COc1ccc(CCNc2c(N)n(Cc3ccccc3)c(=O)[nH]c2=O)cc1OC | -30.8% |
| O=C(COC(=O)/C=C/c1ccc(Br)o1)Nc1ccc2[nH]c(=O)[nH]c2c1 | -8.22% |
| COC(=O)C1=C(c2ccc(-c3ccccc3)c(F)c2)C[C@@H]2CC[C@H]1N2C(=O)NC(C)C | -16.8% |
| CC(Oc1ccc2c3c(c(=O)oc2c1)CCCC3)C(=O)NC1CC(C)(C)NC(C)(C)C1 (stereo not drawn) | 5.14% |
| CC1CC(C)CN(CCC(=O)Nc2ccc3c(c2)CCC3)C1.Cl (stereo not drawn) | -43.6% |
| COc1ccc(Cl)cc1S(=O)(=O)NC(C)C(=O)NCc1cccnc1 (stereo not drawn) | -18.5% |
| CC(=O)N1CCc2cc(S(=O)(=O)CCC(=O)N3CCN(c4cc(C)ccc4C)CC3)ccc21 | -17.7% |
| Cc1cccn2c(=O)c3cc(C(=O)NC4CCCC4)c(=N)n(C4CCCCC4)c3nc12 | -80.7% |
| COc1ccc(C(=O)Cn2c(=O)oc3ccc(C)cc32)cc1 | 4.78% |
| O=C(CC1SCCNC1=O)Nc1ccc(Cl)cc1 (stereo not drawn) | 11.3% |
| O=C(CN1C(=O)CCSc2ccccc21)Nc1ccc(F)cc1 | -15.7% |
| CC(C)NC(=O)CSc1nc(N)c(NC(=O)c2ccccc2F)c(=O)[nH]1 | 17.1% |
| CC(C)NC(=O)COC(=O)c1cncc(Br)c1 | 15.8% |
| CCN1CCN(c2ccc(S(=O)(=O)N3CCCCC3)cc2NC(=O)c2cccc(C)c2[N+](=O)[O-])CC1 | -28.8% |
| O=C(CCCCl)NC1=NN(c2ccccc2)C(=O)C1 | -4.99% |
| CCc1ccc(/C=C/C(=O)c2c(C)cc(C)[nH]c2=O)cc1 | 4.8% |
| O=C(O)C(=O)O.OC(CNCCc1ccc(Cl)cc1Cl)COc1ccccc1 (stereo not drawn) | -25.7% |
